The list shows a part of the results.
system: PfHDP1 homeodomain (GST-tagged); experiment: gcPBM binding intensity (ln(normalized median fluorescence intensity)); higher = stronger DNA binding
Method in brief: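 After 1 h on an Agilent 4 × 180k array of primer-extended double-stranded 36-bp intergenic genomic probes and negative controls, bound GST-tagged P. falciparum DNA-binding domains were detected with Alexa488 anti-GST antibody and scanned at 488 nm. The domains had been expressed in E. coli, and binding took place in 1× PBS with 1% milk, 0.2 mg/ml BSA, 0.5% salmon testes DNA and 0.03% Triton X-100. Binding intensity is the highest Masliner-normalised natural-log median intensity across replicate spots of either probe orientation.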

| Sequence | gcPBM binding intensity (ln) |
| --- | --- |
| TACATCATACGAACAGTGCATATTATTATTGTTCTG | 7.69 |
| ATGGATTATACGTGCACACATATATACAAATAAATA [CACACA_site640] | 9.86 |
| ACCATTTGTAGGTAAACACACATTATTATTAATATC [CACACA_site2635] | 6.39 |
| TTTATTACTATGTAAACACACATGCAATATATGTTA [CACACA_site1114] | 6.6 |
| AAAAAGAAAAAAAAATGTACATAAAGTCTAATGATA [XGTACX_site4781] | 6.9 |
| ATATTATATAAATACACACACACATGCATGCACATA [CACACA_site4236] | 10.3 |
| AAAAAGAATAAATAAATAAATAAATATATATATATA [GTGCAC_negctrl_site584] | 8.96 |
| TAAGAATTGAAAAAATGTACACAATATAAAATTGAA [XGTACX_site698] | 6.01 |
| AAAACAAATAAGTAAACACACATATAAAATCTATAT [CACACA_site7262] | 6.39 |
| CCTATTTATTTATACACACACATATATAAATAAATA [CACACA_site7417] | 7.03 |
| TTATGTAAATGCTTATGTACTTATTACAATATTTTT [XGTACX_site4057] | 6.34 |
| GAAAATATAAAAAAAAGTACATTTTCTCTAAATATA [XGTACX_site2441] | 6.28 |
| AAAAAGGGTATTATTACACACACGTAAATATTAAGA [CACACA_site4233] | 6.57 |
| CTATATAATATGAGCACACATAAGATTTGGTGTTAT [CACACA_site744] | 6.9 |
| AAAAAAAAATTATATACACACATATAAATATATATA [CACACA_site1197] | 6.34 |
| CAAATACAGAAACACACACACATATACATATATATA [CACACA_site3498] | 6.91 |
| AAAATCTAGGTATTTATACACACTAAAATAATATAC [CACACA_site623] | 6.44 |
| ATGTTATTAAAAAAGGGTACACATCTTTTATGTTAA [XGTACX_site812] | 6.54 |
| AATATGTAATAGTGTACACATATATCTGTATTTATG [CACACA_site4252] | 6.61 |

| Sequence | gcPBM binding intensity (ln) |
| --- | --- |
| ATTACACATATAGTAGTGCAATAACTCCAAAAAAAA | 9.55 |
| TTTAAATATAATTGGAGTACTTATAATATATATATA [XGTACX_site7247] | 8.22 |
| TATATATATATATGGGGTACAAATGGTCAGTATTAT [XGTACX_site1223] | 9.16 |
| ATATATATATATATAACACACGTGTATATATATGTA [CACACA_site3644] | 9.08 |
| TATTAATCATATAAATGTACGTATATATATTTTTCT [XGTACX_site1421] | 6.45 |
| AAAAAAAAAAAATATATATATATATATATATATATA [CACACA_negctrl_site1606] | 9.51 |
| TATAATATATTATAACGTACAAATATATATATAAAA [XGTACX_site6581] | 6.94 |
| CAATCATAGAAAAACAGTACGTGTAGCAAACATCCT [XGTACX_site4889] | 6.85 |
| ATTTATATTACAAAAAGTACACACATAAATAAATAC [XGTACX_site1827] | 6.99 |
| TATATATATTATATATGTACATATATTTTTTTTTTT [XGTACX_site127] | 7.09 |
| TTTCTATATCTATTTAATTAACTTTTTATACTGATT [GTGCAC_negctrl_site415] | 6.57 |
| GCATCTCATTTGTGATGTACTATATTATCCGTTTTT [XGTACX_site7576] | 6.1 |
| ATCAACAAAACATACACACACATATATATATATATA [CACACA_site2989] | 9.39 |
| CATATCATTGATTATAGTACACATACCATTTTTTAT [XGTACX_site6572] | 6.69 |
| CACATAAAAAAATAAACACACATATGTATTTATATA [CACACA_site5718] | 6.38 |
| CAACACTTAGATTTTAAGTTCACTGGTTAATATATA [CACACA_negctrl_site707] | 5.83 |
| TTAAAAAAATATAGAGCATGCTAAAAATAAAAAAAT [TGCATGCA_site794] | 7.02 |
| AATAAAAATAATATAGTGCATAATATAAGGAAAAAA | 9.58 |
| GTTATACTCATCAACACACACATACAACGTGGTGTA [CACACA_site4789] | 6.8 |

| Sequence | gcPBM binding intensity (ln) |
| --- | --- |
| AGGTCTATATAATAAGTGCATTTTTTTTTTTTTTTT [GTGCAC_site9664] | 8.64 |
| TTTTAAAAAAAAAAAAAAAAAAAAAAAAAAAAAAAA [CACACA_negctrl_site1343] | 6.02 |
| TGTTTTTTTATTTTCACACATAATCCAATTATACAT [CACACA_site6070] | 6.96 |
| TTTTAAAATTATTAGGTGCATATTTATTCTATATTT | 9.12 |
| TGCAATGGAGCATAAAGTACATATAATTGTATTTTT [XGTACX_site7349] | 8.1 |
| TAGAATAATCCTTACACACACACACCCACGAATAAA [CACACA_site483] | 7.11 |
| AATACAGAGGAAAATACACACGTATATATATAAATA [CACACA_site9125] | 6.51 |
| CTATGCCCCATATAAACACACAAATAAAAAGAATAT [CACACA_site2681] | 7.21 |
| TTTTTTTCTTTTGGGAGTACCAACATTTTCACATAT [XGTACX_site1371] | 6.58 |
| AAAAAAAAAAGACACACACACACAAATACATACACA [CACACA_site6472] | 6.71 |
| TGAATAAAGATATATACACACATATAGGTATATATC [CACACA_site6870] | 6.37 |
| TGCTTATATTTTTATACACACAAGATACTTTTTGTT [CACACA_site1535] | 6.88 |
| ATCTAAATAAAGTTAACACACACATAATATATATAT [CACACA_site8055] | 8.32 |
| AGTAATATAATATAAGCACACGTGTATTTATTTAGG [CACACA_site7921] | 6.65 |
| AAAAAAAAAAAAAAATACAAGCACATTTATATAAGC [GTGCAC_negctrl_site695] | 6.42 |
| AAATACATTAAAATGACATGCAGATATATATCAAAA [TGCATGCA_site477] | 6.73 |
| TATATATCAATATTTACACACATGCGCCCACATAAA [CACACA_site7185] | 6.98 |
| AAAAAAAAAAAATATGTACACACATATATAATACAT [CACACA_site8473] | 6.46 |
| TATATGTTTGAATATACACACAACATATTTATATAT [CACACA_site7832] | 6.51 |

Reference: the supplement of paper PMC11417369
